According to PubChem BioAssay AID1346428 (National Center for Advancing Translational Sciences (NCATS), 2018):
Among all 48,000 compounds or so, about 1,200 (2.5%) were called active. Roughly 2% stayed inconclusive and do not appear here.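 The calls were made as follows: active = activation of at least 60% and not above a set upper limit (about 1 call in 100 departs from these limits); inconclusive = activation of 40% to 60%, or above that upper limit; inactive = activation under 40%.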 The list shows a part of the results.

These compounds were tested against Probable G-protein coupled receptor 32 (Homo sapiens) (UniProt O75388) (assay: qHTS for Agonists of Human Resolvin D1 Receptor DRV1). Settings: CHO-K1 GPR32 beta-arrestin PathHunter luminescence, 90 min; at 76.9 µM; hits give high values; zero percent set by DMSO-only wells.
Sequence of UniProt O75388 (O75388 whole entry, looked up): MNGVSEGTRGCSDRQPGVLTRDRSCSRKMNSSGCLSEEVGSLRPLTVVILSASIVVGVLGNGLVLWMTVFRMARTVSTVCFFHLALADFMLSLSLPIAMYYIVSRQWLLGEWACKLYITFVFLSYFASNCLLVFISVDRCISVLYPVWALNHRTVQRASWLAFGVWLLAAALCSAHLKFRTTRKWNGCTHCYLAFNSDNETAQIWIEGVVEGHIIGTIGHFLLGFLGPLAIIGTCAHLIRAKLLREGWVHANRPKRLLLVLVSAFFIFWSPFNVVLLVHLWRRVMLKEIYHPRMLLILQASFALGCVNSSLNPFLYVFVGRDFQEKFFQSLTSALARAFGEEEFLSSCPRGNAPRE
Summary of the method: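 Cells are plated overnight, treated with compounds in DMSO for 90 minutes at 37 °C, and developed with PathHunter detection reagent for 1 hour before luminescence is read; signal reflects beta-arrestin binding to GPR32 in engineered CHO-K1 cells.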
Also: 0% is about no effect.

Structure (SMILES) | activation
Cc1ccc(CCNC(=O)c2cc3c(-c4ccccc4F)nn(C)c3s2)cc1 | inactive: 38.2%
COCCCNC(=O)c1ccc2c(c1)nc(C)n2-c1cccc(C)c1 | inactive: -7.5%
CCOc1ccc(-c2oc3ccc(C)cc3c(=O)c2O)cc1 | inactive: -3.12%
Fc1ccc(Nc2ncnc3c2nc2n3CCCCC2)c(F)c1 | inactive: 41.4%
CCN(c1ccccc1)S(=O)(=O)c1ccc(NC(=O)c2cc(=O)c3ccccc3o2)cc1 | inactive: -11.1%
Nc1ccc(N2C(=O)c3ccccc3C2=O)c(Cl)c1 | inactive: 8.03%
O=C(Nc1ccc(C(=O)OCc2cc(=O)n3nc(C4CC4)sc3n2)cc1)c1cccc(F)c1 | inactive: 2.2%
COc1ccc2c(CNC3CCCCCC3)c(C(=O)O)n(Cc3ccccc3F)c2c1 | inactive: -4.09%
CCOC(=O)c1c(S(=O)(=O)N2CCC(C(=O)Nc3ncccc3C)CC2)c(C)n(C)c1C | inactive: -11.9%
CN1CCc2cc(Cl)c(O)cc2[C@@H](c2ccccc2)C1 | inactive: 0.994%
CCOC(=O)c1cc(-c2ccc(OC)cc2)n(CCC(=O)NC2CCCCC2)c1C | inactive: -37.6%
O=C(Nc1ccc(F)cc1)C1CCN(S(=O)(=O)c2ccc3c(c2)CCCN3C(=O)C2CCC2)CC1 | inactive: -23.7%
CCOC(=O)c1cnc2ccc(C)cc2c1Nc1ccc(N(CC)CC)cc1 | inactive: 43%
CCC(=O)N1CCc2cc(Br)cc(S(=O)(=O)CCC(=O)N3CCN(c4cc(C)ccc4C)CC3)c21 | inactive: -5.44%
CCCc1nnc(NC(=O)c2cc(=O)c3cc(C)c(C)cc3o2)s1 | inactive: -11.5%
Cc1c(C(=O)OC2CCCCC2)[nH]c2c1C(=O)CC(c1ccc(C(C)(C)C)cc1)C2 (stereo not drawn) | inactive: 4.85%
CCOC(=O)c1cc(S(=O)(=O)NCc2cccc(Cl)c2)[nH]n1 | inactive: -19.6%
Cc1cccc(C(=O)Nc2sc3c(c2C(=O)NC(C)C)CCCC3)c1 | inactive: -6.8%
Cn1c(=O)c2c(nc(NCCc3ccccc3)n2Cc2ccc(Cl)cc2)n(C)c1=O | active: 72.7%
CCOC(=O)c1cnc2cc(F)c(F)cc2c1Nc1ccccc1O | inactive: 2.82%
Nc1nnnn1-c1ccccc1 | inactive: -11.3%
CC(C)(C)OC(=O)N1CCC(c2c(C(=O)N3CCCCC3)cnn2-c2cccc(F)c2)CC1 | inactive: 2.2%

Structure (SMILES) | activation
Cc1ccc(CNC(=O)CSc2ncc3c(n2)-c2ccc(Cl)cc2N(Cc2ccccc2)S3(=O)=O)cc1 | inactive: 12%
Cc1ccc(NS(=O)(=O)c2cc3[nH]c(=O)c(=O)[nH]c3cc2C)cc1N(C)C | inactive: -15.6%
CCc1ccccc1NC(=O)[C@@H](c1ccccc1)N1Cc2ccccc2C1=O | inactive: -7.59%
Cc1ncc(CO)c(CO)c1O | inactive: -12.9%
Cc1ccc(NC(=O)CCCn2c(=O)c3cccn3c3cccnc32)cc1C | inactive: -3.02%
Cc1ccc(C)c(NC(=O)CSc2nnc(-c3cc4occc4n3C)n2-c2ccccc2C)c1 | inactive: -26.1%
CC(=O)c1ccc(N2CCN(C(=O)CCc3nnc4n(C)c(=O)c5sccc5n34)CC2)cc1 | inactive: 6.17%
COc1cc(OC)c(NC(=O)c2noc3c2CSc2ccccc2-3)cc1Cl | inactive: -15.1%
CCCCn1c(SCC(=O)Nc2ccc(OCC)cc2)nc2ccsc2c1=O | inactive: -2.05%
CC(=O)N1CCc2c(sc3c2c(=O)n(-c2cc(Cl)ccc2C)c(=O)n3Cc2ccccc2F)C1 | inactive: -4.23%
CC1(C)CC(=O)c2c(oc3c(Cl)cc(NS(=O)(=O)c4ccc(Br)cc4)cc23)C1 | inactive: -4.15%
CC(C)CC(=O)Nc1ccccc1OCc1cc(=O)n2ccccc2n1 | inactive: -11%
COc1ccc(C(=O)COC(=O)CCCC(=O)Nc2cc(C(F)(F)F)ccc2Cl)cc1 | inactive: 3.91%
COC(=O)c1cc(Cl)ccc1NC(=O)CSc1ncc(S(=O)(=O)c2ccc(Br)cc2)c(=O)[nH]1 | active: 100%
O=C(Nc1ccc(Br)cc1F)N1CCC(CN2CCc3ccccc3C2)CC1 | inactive: -29.1%
Cc1ccc(Nc2c(-c3ccc(C)s3)nc3ncccn23)cc1 | inactive: -15.1%
CCCCOC(=O)c1ccc(NC(=O)c2cc(-c3cccs3)on2)cc1 | inactive: 6.17%
COc1ccc(OCC(=O)OCc2cc(=O)n3nc(C4CC4)sc3n2)cc1 | inactive: 31.4%
Cc1ccc(NC(=O)C(=O)NCC(c2ccc3c(c2)OCO3)N2CCOCC2)cc1C (stereo not drawn) | inactive: -3.19%
CCC(C)NC(=O)c1ccc2nc(CCc3ccccc3)oc2c1 (stereo not drawn) | inactive: -5.3%
Cc1ccc(CNC(=O)CCCc2nnc3n(C)c(=O)c4sccc4n23)cc1 | inactive: 0.171%
